Reference: the supplement of paper PMC9446081
In all, about 39,000 compounds went through this assay and about 220 (0.56%) showed activity. The list shows a part of the results.
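Note: static incubation at 37 °C against the wild-type strain, values averaged over two biological replicates.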

The compounds below were run on Escherichia coli K-12 BW25113 (assay: relative growth (OD600 normalised to plate interquartile mean) (fraction); higher = less growth inhibition, active = 0.2 or less). Conditions: 50 µM; LB; incubation time: overnight (16-24 h).
For `CO[C@@H]1CN(C)C(=O)c2cc(NS(=O)(=O)c3ccccc3)ccc2OC[C@@H](C)N(C(=O)NC(C)C)C[C@@H]1C`, the relative growth was inactive: 0.999. For `O=C(NCCCc1nn[nH]n1)c1[nH]nc2c1CCC2`, the relative growth was inactive: 0.989. With `C[C@H](O)CC(=O)O` the relative growth was inactive: 0.713. For `Cc1cc(C(=O)Nc2cccc3c2O[C@H](CN(C)S(C)(=O)=O)[C@H](C)CN([C@H](C)CO)C3=O)n(C)n1`, the relative growth was inactive: 0.995. `NCc1ccccc1F` was tested, and the relative growth was inactive: 1. With `CC(=O)N[C@H]1CSSC[C@@H](C(N)=O)NC(=O)[C@H](C(C)C)NC(=O)[C@H](C)NC(=O)[C@H](Cc2cnc[nH]2)NC1=O` the relative growth was inactive: 1. `Cc1noc(C)c1NC(=O)N(C)C[C@@H]1Oc2ccc(NS(=O)(=O)c3ccccc3)cc2C(=O)N([C@H](C)CO)C[C@@H]1C` was tested, and the relative growth was inactive: 1.03. With `CN1C[C@@H](CN)CC1=O` the relative growth was inactive: 1.01. For `C[C@@H]1CN([C@H](C)CO)S(=O)(=O)c2ccc(C#CC(C)(C)O)cc2O[C@@H]1CN(C)C(=O)CN(C)C`, the relative growth was inactive: 0.992. In the case of `Cc1ccc(S(=O)(=O)Nc2ccc3c(c2)CC(=O)N([C@@H](C)CO)C[C@@H](C)[C@H](CN(C)Cc2ccc(C(F)(F)F)cc2)O3)cc1`, the relative growth is reported as inactive: 0.952. `CC(=O)OCCc1nc(C(=O)NCc2ccc3c(c2)OCO3)cc2c1[C@@H](CCO)N([S@](=O)C(C)(C)C)C2` was tested, and the relative growth was inactive: 0.978. `C[C@H](CO)N1C[C@H](C)[C@@H](CN(C)C(=O)Nc2ccccc2)OCCCC[C@H](C)Oc2ccc(NC(=O)CCC(F)(F)F)cc2C1=O` was tested, and the relative growth was inactive: 1. `C[C@H]1CN([C@@H](C)CO)C(=O)c2cccc(NS(=O)(=O)c3ccccc3)c2O[C@@H]1CN(C)S(=O)(=O)c1ccccc1` was tested, and the relative growth was inactive: 0.993. In the case of `O=C(C[C@H]1C[C@H]2c3cc(NC(=O)C4CCOCC4)ccc3O[C@H]2[C@@H](CO)O1)NCc1cc(F)ccc1F`, the relative growth is reported as inactive: 0.995. `C[C@H]1CN([C@@H](C)CO)C(=O)Cc2cc(NC(=O)Nc3ccc4c(c3)OCO4)ccc2O[C@H]1CN(C)Cc1ccc(C(F)(F)F)cc1` was tested, and the relative growth was inactive: 1.03. With `Cc1noc(C)c1NC(=O)N(C)C[C@H]1OCCCC[C@@H](C)Oc2ccc(NC(=O)Nc3cccc4ccccc34)cc2C(=O)N([C@@H](C)CO)C[C@H]1C` the relative growth was inactive: 0.97. For `C[C@H]1CN([C@@H](C)CO)C(=O)c2cccc(NC(=O)c3nc4ccccc4s3)c2O[C@H]1CN(C)S(=O)(=O)c1cn(C)cn1`, the relative growth was inactive: 0.913. With `C[C@H]1CN([C@@H](C)CO)C(=O)c2cc(NC(=O)Cc3cn(C)c4ccccc34)ccc2O[C@H]1CN(C)S(=O)(=O)c1cn(C)cn1` the relative growth was inactive: 0.99. `CN(C)CC#Cc1ccc([C@H]2[C@H]3CN(C(=O)CN(C)C)CC(=O)N3[C@H]2CO)cc1` was tested, and the relative growth was inactive: 1.02. With `O=C(CCCCC(=O)N/N=C/c1cc(I)cc(I)c1O)NO` the relative growth was inactive: 0.886. With `C[C@H]1CN([C@@H](C)CO)C(=O)c2cc(NC(=O)CCN3CCOCC3)ccc2O[C@@H]1CN(C)C(=O)Nc1ccc(F)cc1` the relative growth was inactive: 0.99. For `C[C@H]1CN([C@@H](C)CO)C(=O)c2cc(NS(=O)(=O)c3cccs3)ccc2O[C@H]1CN(C)Cc1ccc(Cl)c(Cl)c1`, the relative growth was inactive: 0.995. `OC[C@H]1O[C@@H](S[C@@H]2O[C@H](CO)[C@H](O)[C@H](n3cc(-c4cccc(F)c4)nn3)[C@H]2O)[C@H](O)[C@@H](n2cc(-c3cccc(F)c3)nn2)[C@H]1O` was tested, and the relative growth was inactive: 0.949. With `OC[C@H]1O[C@@H]2O[C@H]3[C@H](O)[C@@H](O)[C@@H](O[C@H]4[C@H](O)[C@@H](O)[C@@H](O[C@H]5[C@H](O)[C@@H](O)[C@@H](O[C@H]6[C@H](O)[C@@H](O)[C@@H](O[C@H]7[C@H](O)[C@@H](O)[C@@H](O[C@H]1[C@H](O)[C@H]2O)O[C@@H]7CO)O[C@@H]6CO)O[C@@H]5CO)O[C@@H]4CO)O[C@@H]3CO` the relative growth was inactive: 1.01. For `COC(=O)[C@H]1CN(C)CCC1=O`, the relative growth was inactive: 1.01. For `CC(C)(C)OC(=O)N1CC(=O)C1`, the relative growth was inactive: 0.941. With `Cc1ccc(S(=O)(=O)N(C)C[C@@H]2Oc3c(NC(=O)Nc4ccc(C(F)(F)F)cc4)cccc3C(=O)N([C@@H](C)CO)C[C@H]2C)cc1` the relative growth was inactive: 0.792. For `O=C(C[C@@H]1C[C@@H]2c3cc(NC(=O)c4ccc5c(c4)OCO5)ccc3O[C@@H]2[C@H](CO)O1)NCc1ccc(Oc2ccccc2)cc1`, the relative growth was inactive: 0.994. In the case of `C[C@H](O)C#Cc1cnc2c(c1)C(=O)N([C@@H](C)CO)C[C@@H](C)[C@H](CN(C)C(=O)Nc1ccc(C(F)(F)F)cc1)O2`, the relative growth is reported as inactive: 0.944. With `C[C@H](CO)N1C[C@H](C)[C@H](CN(C)Cc2ccccc2)OCCCC[C@H](C)Oc2ccc(NC(=O)Nc3cccc4ccccc34)cc2C1=O` the relative growth was inactive: 1.06. With `C[C@@H]1CN([C@H](C)CO)C(=O)CCCn2cc(nn2)CO[C@H]1CN(C)S(=O)(=O)c1ccc2c(c1)OCCCO2` the relative growth was inactive: 1.01. With `O=C([C@H]1N[C@H]2c3ccc(-c4ccc(F)cc4)c(=O)n3C[C@H]2[C@@H]1CO)N1CCOCC1` the relative growth was inactive: 1.03. In the case of `C[C@H](CO)N1C[C@H](C)[C@@H](CN(C)Cc2ccccc2)OCc2ccccc2-c2c(n(C)c3ccccc23)C1=O`, the relative growth is reported as inactive: 1.02. In the case of `C[C@H]1CN([C@@H](C)CO)C(=O)c2cccc(NC(=O)C3CCOCC3)c2O[C@H]1CN(C)C(=O)Nc1ccc2c(c1)OCO2`, the relative growth is reported as inactive: 1.02. For `C[C@@H]1CN([C@@H](C)CO)S(=O)(=O)c2ccc(C#Cc3ccc(F)cc3)cc2O[C@H]1CN(C)S(C)(=O)=O`, the relative growth was inactive: 1.03. With `COc1ccc([C@H]([C@@H](O)Cc2ccccc2)N(C[C@H](/C=C/c2ccccc2)NC(=O)C(Cl)(Cl)Cl)[C@@H](Cc2ccccc2)C(OC)OC)cc1` the relative growth was inactive: 1.03. With `C[C@H](CO)N1C[C@H](C)[C@H](CN(C)S(=O)(=O)c2cn(C)cn2)OCCCC[C@H](C)Oc2ccc(NC(=O)Nc3ccc(C(F)(F)F)cc3)cc2C1=O` the relative growth was inactive: 1.03. In the case of `C=CC[C@H](CC(=O)N[C@@H](CO)Cc1ccccc1)C(=O)N[C@@H](COC(=O)[C@@H](CC=C)Cc1ccc(F)cc1)Cc1ccccc1`, the relative growth is reported as inactive: 1.02.
